{"source": "the supplement of paper PMC8728848", "assay_in_all_cases": "glycan array binding signal (z-score within array); higher = stronger binding", "conditions_in_all_cases": "glycan notation: IUPAC condensed, linker removed", "key": {"Neu5Ac(a2-3)GalNAc": {"target": "Neu5Ac(a2-3)GalNAc", "procedure,_shortened": "(§1)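 The binding signal is a Z-score computed within each array. Data were drawn from 3228 arrays in the Consortium for Functional Glycomics database, restricted to those with a known protein sequence. Scores were averaged over arrays of the same protein sequence at different concentrations or buffers, and over linkers, and negative values can be taken as non-binding.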"}, "[1]": {"target": "Neu5Ac(a2-3)GalNAc(b1-4)GlcNAc", "procedure,_shortened": "as §1"}, "[2]": {"target": "Neu5Ac(a2-3)[GalNAc(b1-4)]Gal(b1-4)Glc", "procedure,_shortened": "as §1"}, "[3]": {"target": "Neu5Ac(a2-3)[GalNAc(b1-4)]Gal(b1-4)GlcNAc", "procedure,_shortened": "as §1"}, "[4]": {"target": "Neu5Ac(a2-3)[GalNAc(b1-4)]Gal(b1-4)GlcNAc(b1-3)GalNAc", "procedure,_shortened": "as §1"}, "[5]": {"target": "Neu5Ac(a2-3)[Neu5Ac(a2-6)]GalNAc", "procedure,_shortened": "as §1"}, "Neu5Ac(a2-6)Gal": {"target": "Neu5Ac(a2-6)Gal", "procedure,_shortened": "as §1"}, "[6]": {"target": "Neu5Ac(a2-6)Gal(b1-3)GlcNAc(b1-3)[Gal(b1-4)GlcNAc(b1-6)]Gal(b1-4)Glc", "procedure,_shortened": "as §1"}, "Neu5Ac(a2-6)Gal(b1-4)Glc": {"target": "Neu5Ac(a2-6)Gal(b1-4)Glc", "procedure,_shortened": "as §1"}, "[7]": {"target": "Neu5Ac(a2-6)Gal(b1-4)GlcNAc", "procedure,_shortened": "as §1"}, "[8]": {"target": "Neu5Ac(a2-6)Gal(b1-4)GlcNAc(b1-2)Man", "procedure,_shortened": "as §1"}, "[9]": {"target": "Neu5Ac(a2-6)Gal(b1-4)GlcNAc(b1-2)Man(a1-3)Man(b1-4)GlcNAc(b1-4)GlcNAc", "procedure,_shortened": "as §1"}, "[10]": {"target": "Neu5Ac(a2-6)Gal(b1-4)GlcNAc(b1-2)Man(a1-3)[Gal(b1-4)GlcNAc(b1-2)Man(a1-6)]Man(b1-4)GlcNAc(b1-4)GlcNAc", "procedure,_shortened": "as §1"}, "[11]": {"target": "Neu5Ac(a2-6)Gal(b1-4)GlcNAc(b1-2)Man(a1-3)[GlcNAc(b1-2)Man(a1-6)]Man(b1-4)GlcNAc(b1-4)GlcNAc", "procedure,_shortened": "as §1"}, "[12]": {"target": "Neu5Ac(a2-6)Gal(b1-4)GlcNAc(b1-2)Man(a1-3)[GlcNAc(b1-4)][Neu5Ac(a2-6)Gal(b1-4)GlcNAc(b1-2)Man(a1-6)]Man(b1-4)GlcNAc(b1-4)GlcNAc", "procedure,_shortened": "as §1"}, "[13]": {"target": "Neu5Ac(a2-6)Gal(b1-4)GlcNAc(b1-2)Man(a1-3)[Man(a1-6)]Man(b1-4)GlcNAc(b1-4)GlcNAc", "procedure,_shortened": "as §1"}, "[14]": {"target": "Neu5Ac(a2-6)Gal(b1-4)GlcNAc(b1-2)Man(a1-3)[Neu5Ac(a2-3)Gal(b1-4)GlcNAc(b1-2)Man(a1-6)]Man(b1-4)GlcNAc(b1-4)GlcNAc", "procedure,_shortened": "as §1"}, "[15]": {"target": "Neu5Ac(a2-6)Gal(b1-4)GlcNAc(b1-2)Man(a1-3)[Neu5Ac(a2-6)Gal(b1-4)GlcNAc(b1-2)Man(a1-6)]Man(b1-4)GlcNAc(b1-4)GlcNAc", "procedure,_shortened": "as §1"}, "[16]": {"target": "Neu5Ac(a2-6)Gal(b1-4)GlcNAc(b1-2)Man(a1-3)[Neu5Ac(a2-6)Gal(b1-4)GlcNAc(b1-2)Man(a1-6)]Man(b1-4)GlcNAc(b1-4)[Fuc(a1-6)]GlcNAc", "procedure,_shortened": "as §1"}, "[17]": {"target": "Neu5Ac(a2-6)Gal(b1-4)GlcNAc(b1-2)Man(a1-6)Man(b1-4)GlcNAc(b1-4)GlcNAc", "procedure,_shortened": "as §1"}, "[18]": {"target": "Neu5Ac(a2-6)Gal(b1-4)GlcNAc(b1-2)Man(a1-6)[Gal(b1-4)GlcNAc(b1-2)Man(a1-3)]Man(b1-4)GlcNAc(b1-4)GlcNAc", "procedure,_shortened": "as §1"}, "[19]": {"target": "Neu5Ac(a2-6)Gal(b1-4)GlcNAc(b1-2)Man(a1-6)[GlcNAc(b1-2)Man(a1-3)]Man(b1-4)GlcNAc(b1-4)GlcNAc", "procedure,_shortened": "as §1"}, "[20]": {"target": "Neu5Ac(a2-6)Gal(b1-4)GlcNAc(b1-2)Man(a1-6)[Man(a1-3)]Man(b1-4)GlcNAc(b1-4)GlcNAc", "procedure,_shortened": "as §1"}, "[21]": {"target": "Neu5Ac(a2-6)Gal(b1-4)GlcNAc(b1-2)[Neu5Ac(a2-6)Gal(b1-4)GlcNAc(b1-4)]Man(a1-3)[GlcNAc(b1-4)][Neu5Ac(a2-6)Gal(b1-4)GlcNAc(b1-2)[Neu5Ac(a2-6)Gal(b1-4)GlcNAc(b1-6)]Man(a1-6)]Man(b1-4)GlcNAc(b1-4)GlcNAc", "procedure,_shortened": "as §1"}, "[22]": {"target": "Neu5Ac(a2-6)Gal(b1-4)GlcNAc(b1-2)[Neu5Ac(a2-6)Gal(b1-4)GlcNAc(b1-4)]Man(a1-3)[GlcNAc(b1-4)][Neu5Ac(a2-6)Gal(b1-4)GlcNAc(b1-4)Man(a1-6)]Man(b1-4)GlcNAc(b1-4)GlcNAc", "procedure,_shortened": "as §1"}, "[23]": {"target": "Neu5Ac(a2-6)Gal(b1-4)GlcNAc(b1-2)[Neu5Ac(a2-6)Gal(b1-4)GlcNAc(b1-6)]Man(a1-6)[Neu5Ac(a2-6)Gal(b1-4)GlcNAc(b1-2)Man(a1-3)][GlcNAc(b1-4)]Man(b1-4)GlcNAc(b1-4)GlcNAc", "procedure,_shortened": "as §1"}, "[24]": {"target": "Neu5Ac(a2-6)Gal(b1-4)GlcNAc(b1-3)Gal(b1-3)GlcNAc", "procedure,_shortened": "as §1"}, "[25]": {"target": "Neu5Ac(a2-6)Gal(b1-4)GlcNAc(b1-3)Gal(b1-4)GlcNAc", "procedure,_shortened": "as §1"}, "[26]": {"target": "Neu5Ac(a2-6)Gal(b1-4)GlcNAc(b1-3)Gal(b1-4)GlcNAc(b1-2)Man(a1-3)[Neu5Ac(a2-6)Gal(b1-4)GlcNAc(b1-3)Gal(b1-4)GlcNAc(b1-2)Man(a1-6)]GalNAc", "procedure,_shortened": "as §1"}, "[27]": {"target": "Neu5Ac(a2-6)Gal(b1-4)GlcNAc(b1-3)Gal(b1-4)GlcNAc(b1-3)Gal(b1-4)GlcNAc", "procedure,_shortened": "as §1"}, "[28]": {"target": "Neu5Ac(a2-6)Gal(b1-4)GlcNAc(b1-3)Gal(b1-4)GlcNAc(b1-3)Gal(b1-4)GlcNAc(b1-2)Man(a1-3)[Neu5Ac(a2-6)Gal(b1-4)GlcNAc(b1-3)Gal(b1-4)GlcNAc(b1-3)Gal(b1-4)GlcNAc(b1-2)Man(a1-6)]GalNAc", "procedure,_shortened": "as §1"}, "[29]": {"target": "Neu5Ac(a2-6)Gal(b1-4)GlcNAc(b1-3)Gal(b1-4)GlcNAc(b1-3)GalNAc", "procedure,_shortened": "as §1"}, "[30]": {"target": "Neu5Ac(a2-6)Gal(b1-4)GlcNAc(b1-3)Gal(b1-4)GlcNAc(b1-3)[Neu5Ac(a2-6)Gal(b1-4)GlcNAc(b1-3)Gal(b1-4)GlcNAc(b1-6)]GalNAc", "procedure,_shortened": "as §1"}, "[31]": {"target": "Neu5Ac(a2-6)Gal(b1-4)GlcNAc(b1-3)Gal(b1-4)GlcNAc(b1-6)[Gal(b1-3)]GalNAc", "procedure,_shortened": "as §1"}, "[32]": {"target": "Neu5Ac(a2-6)Gal(b1-4)GlcNAc(b1-3)Gal(b1-4)[Fuc(a1-3)]GlcNAc(b1-3)Gal(b1-4)[Fuc(a1-3)]GlcNAc", "procedure,_shortened": "as §1"}, "[33]": {"target": "Neu5Ac(a2-6)Gal(b1-4)GlcNAc(b1-3)GalNAc", "procedure,_shortened": "as §1"}, "[34]": {"target": "Neu5Ac(a2-6)Gal(b1-4)GlcNAc(b1-3)[Neu5Ac(a2-6)Gal(b1-4)GlcNAc(b1-6)]GalNAc", "procedure,_shortened": "as §1"}}, "note": "The other results are listed elsewhere or left out."}
{"binder": "GS14009A-pdi-495-27-495 (Parabacteroides distasonis) (protein) FEEVNTDPDSPTDVPTTNLLAYSLYYTSYRLYDRWFAMDEPMTFCGYASKMTYIDESRYNFRTGVQDTNWEYLYRILNNLKDIEKRATFNETPNMLNVSKVMQVHLMQVATDRWRDVPYTDAAKMTDGILQPKYDKQEDIYPGLLATLKEAADGFADGGSDDLGEGDLLFGGDIEKWQRYCNSMRLRLAMRISEVSPALAKETVEEVMGNPTKYPIMESNDDNAFFWWIGTDPNYYEPMADGYRTRKTEYCAADVIVDHMNTREDPRRSSYFQPTKESVEAGEPKYVGYTIGAKANAVASKYSIWGARFFTDLAGFSPYMRVAEPWFCVAEASMLGWNTGISAEDAYNKAVTYSMEENSVSAEDIADYLANAGKFTNDKKQIYYEEWVAMFKQGMEGWSLYRRTGVPDNLYPAPGRPANYSNHNVPPFRSPYPDKERNLNNANCAPFDAEVVDNLWGKQMWWDTRTGVH", "values": [{"measurement": "glycan array binding signal (z-score)", "setting": "Neu5Ac(a2-3)GalNAc", "value": -0.522}, {"measurement": "glycan array binding signal (z-score)", "setting": "[1]", "value": -0.547}, {"measurement": "glycan array binding signal (z-score)", "setting": "[2]", "value": -0.129}, {"measurement": "glycan array binding signal (z-score)", "setting": "[3]", "value": -0.641}, {"measurement": "glycan array binding signal (z-score)", "setting": "[4]", "value": 1}, {"measurement": "glycan array binding signal (z-score)", "setting": "[5]", "value": -1.01}, {"measurement": "glycan array binding signal (z-score)", "setting": "Neu5Ac(a2-6)Gal", "value": 0.931}, {"measurement": "glycan array binding signal (z-score)", "setting": "[6]", "value": -0.337}, {"measurement": "glycan array binding signal (z-score)", "setting": "Neu5Ac(a2-6)Gal(b1-4)Glc", "value": 0.329}, {"measurement": "glycan array binding signal (z-score)", "setting": "[7]", "value": -0.008}, {"measurement": "glycan array binding signal (z-score)", "setting": "[8]", "value": -0.108}, {"measurement": "glycan array binding signal (z-score)", "setting": "[9]", "value": 0.245}, {"measurement": "glycan array binding signal (z-score)", "setting": "[10]", "value": 0.284}, {"measurement": "glycan array binding signal (z-score)", "setting": "[11]", "value": -0.126}, {"measurement": "glycan array binding signal (z-score)", "setting": "[12]", "value": -0.102}, {"measurement": "glycan array binding signal (z-score)", "setting": "[13]", "value": -0.647}, {"measurement": "glycan array binding signal (z-score)", "setting": "[14]", "value": -0.631}, {"measurement": "glycan array binding signal (z-score)", "setting": "[15]", "value": -0.114}, {"measurement": "glycan array binding signal (z-score)", "setting": "[16]", "value": 0.457}, {"measurement": "glycan array binding signal (z-score)", "setting": "[17]", "value": -0.893}, {"measurement": "glycan array binding signal (z-score)", "setting": "[18]", "value": 0.46}, {"measurement": "glycan array binding signal (z-score)", "setting": "[19]", "value": -0.042}, {"measurement": "glycan array binding signal (z-score)", "setting": "[20]", "value": -0.156}, {"measurement": "glycan array binding signal (z-score)", "setting": "[21]", "value": -0.036}, {"measurement": "glycan array binding signal (z-score)", "setting": "[22]", "value": 0.029}, {"measurement": "glycan array binding signal (z-score)", "setting": "[23]", "value": -0.319}, {"measurement": "glycan array binding signal (z-score)", "setting": "[24]", "value": -0.204}, {"measurement": "glycan array binding signal (z-score)", "setting": "[25]", "value": -0.236}, {"measurement": "glycan array binding signal (z-score)", "setting": "[26]", "value": -0.152}, {"measurement": "glycan array binding signal (z-score)", "setting": "[27]", "value": -0.311}, {"measurement": "glycan array binding signal (z-score)", "setting": "[28]", "value": -0.125}, {"measurement": "glycan array binding signal (z-score)", "setting": "[29]", "value": -0.262}, {"measurement": "glycan array binding signal (z-score)", "setting": "[30]", "value": 0.196}, {"measurement": "glycan array binding signal (z-score)", "setting": "[31]", "value": 0.489}, {"measurement": "glycan array binding signal (z-score)", "setting": "[32]", "value": -0.398}, {"measurement": "glycan array binding signal (z-score)", "setting": "[33]", "value": -0.423}, {"measurement": "glycan array binding signal (z-score)", "setting": "[34]", "value": -0.228}]}
